Consider 31 compounds from the antibiotic and cytotoxicity screens of Wong et al. (2023).

SMILES strings stand for the structures. The list shows a part of the results.

The assay has as its system HSkMC (human skeletal muscle cells). The assay can be described thus: cytotoxicity call (relative viability < 0.9). The conditions noted are these: 10 µM.
For `C[C@H](CO)N1C[C@H](C)[C@@H](CN(C)C(=O)Cc2ccccc2)OCCCC[C@H](C)Oc2ccc(NS(=O)(=O)c3ccc(F)cc3)cc2C1=O`, the cytotoxicity call was “inactive”. Regarding `Clc1nc(-c2ccccn2)nc2scc(-c3ccccc3)c12`, the cytotoxicity call was “inactive”.

Turning to `CO[C@@H](CN(C)S(=O)(=O)c1ccc(Cl)cc1)[C@H](C)CN([C@H](C)CO)S(=O)(=O)c1cccc(Cl)c1`, the cytotoxicity call was “inactive”.

Consider `COc1ccc(S(=O)(=O)N(C)C[C@@H]2Oc3c(cccc3N(C)C)C(=O)N([C@@H](C)CO)C[C@H]2C)cc1`, for which the cytotoxicity call is “inactive”. The same measure for `C[C@H]1CN([C@@H](C)CO)C(=O)c2cc(NS(C)(=O)=O)ccc2O[C@@H]1CN(C)C(=O)Nc1ccc(F)cc1`: “inactive”; for `C[C@@H]1CCCCO[C@H](CN(C)Cc2ccccc2)[C@H](C)CN([C@H](C)CO)C(=O)c2cc(NC(=O)Nc3ccc4c(c3)OCO4)ccc2O1`: “inactive”. In the case of `COc1ccc(S(=O)(=O)N(C)C[C@@H]2Oc3c(cccc3N(C)C)C(=O)N([C@H](C)CO)C[C@H]2C)cc1`, the cytotoxicity call is “inactive”. With `CSc1scc(-c2cc(Cl)cc(Cl)c2)c1C#N` the entry was “inactive”. Consider `C[C@H](CO)N1C[C@H](C)[C@H](CN(C)C(=O)c2cccc(F)c2)Oc2cc(C#CC3CC3)ccc2S1(=O)=O`, for which the cytotoxicity call is “inactive”. On to `COCC(=O)Nc1ccc2c(c1)C(=O)N(C)C[C@H](OC)[C@H](C)CN(C(=O)Cc1cccnc1)[C@@H](C)CO2`, for which the cytotoxicity call is “inactive”. The same measure for `CC(=O)c1c(O)cc(O)cc1O`: “inactive”; for `CCCCc1cc(CCCC)n2nc(-c3ccccc3)cc2n1`: “inactive”. With `C[C@@H]1CN([C@@H](C)CO)C(=O)c2cccc(NC(=O)C3CCOCC3)c2O[C@@H]1CN(C)Cc1ccc(C(=O)O)cc1` the entry was “inactive”; with `CS(=O)(=O)Nc1ccc2c(c1)[C@H]1C[C@@H](CC(=O)NCc3ccc(-c4ccccc4)cc3)O[C@H](CO)[C@H]1O2`, “inactive”. On to `C[C@@H]1CN([C@H](C)CO)C(=O)c2cc(NC(=O)Nc3ccc(F)cc3)ccc2O[C@@H](C)CCCCO[C@@H]1CN(C)C(=O)NC1CCCCC1`, for which the cytotoxicity call was “inactive”.

In the case of `C[C@@H]1CCCCO[C@@H](CN(C)Cc2ccc(Cl)c(Cl)c2)[C@@H](C)CN([C@H](C)CO)C(=O)c2cc(NC(=O)C3CCCCC3)ccc2O1`, the cytotoxicity call is “inactive”. On to `Cc1noc(C)c1NC(=O)N(C)C[C@H]1Oc2ccc(NC(=O)C3CC3)cc2C(=O)N([C@H](C)CO)C[C@H]1C`, for which the cytotoxicity call was “inactive”. The same measure for `C[C@H]1CN([C@@H](C)CO)S(=O)(=O)c2ccc(C#Cc3ccc(F)cc3)cc2O[C@@H]1CN(C)S(=O)(=O)c1cn(C)cn1`: “inactive”; for `O=C(C[C@@H]1CC[C@@H]2[C@H](COC[C@H](O)CN2S(=O)(=O)c2cccc(Cl)c2)O1)NCc1ccncn1`: “inactive”. Regarding `COc1ccc(NC(=O)Nc2ccc3c(c2)C(=O)N([C@H](C)CO)C[C@@H](C)[C@@H](CN(C)S(=O)(=O)c2ccc(F)cc2)OCCCC[C@@H](C)O3)cc1`, the cytotoxicity call is “inactive”. The same measure for `O=C1CC[C@@H](C(=O)N2CSC[C@H]2C(=O)O)N1`: “inactive”. Regarding `C[C@H](CO)N1C[C@H](C)[C@@H](CN(C)Cc2ccc(-c3ccccc3)cc2)Oc2c(NS(=O)(=O)c3cccs3)cccc2C1=O`, the cytotoxicity call was “inactive”. For the compound `C[C@@H]1CN([C@@H](C)CO)C(=O)c2cc(C#CC3(O)CCCC3)cnc2O[C@@H]1CN(C)C(=O)Nc1ccc2c(c1)OCO2`, the cytotoxicity call was “inactive”. With `C[C@@H]1CN([C@@H](C)CO)S(=O)(=O)c2ccc(C#Cc3ccccc3)cc2O[C@@H]1CN(C)S(C)(=O)=O` the entry was “inactive”. Consider `C[C@@H]1CN([C@@H](C)CO)C(=O)c2cc(-c3cccnc3)cnc2O[C@@H]1CN(C)C(=O)Nc1ccc2c(c1)OCO2`, for which the cytotoxicity call is “inactive”. With `CC(C)NC(=O)Nc1ccc2c(c1)C(=O)N([C@H](C)CO)C[C@H](C)[C@@H](CN(C)Cc1ccc3c(c1)OCO3)O2` the entry was “inactive”; with `CCC(=O)N1C[C@]2(CN(C2)C(=O)CN2CCOCC2)c2c([nH]c3cc(ccc23)OC)[C@H]1CO`, “inactive”.

For `C[C@H]1CN([C@@H](C)CO)C(=O)Cc2cc(NC(=O)c3ccncc3)ccc2O[C@@H]1CN(C)C(=O)Nc1ccc2c(c1)OCO2`, the cytotoxicity call is “inactive”. For the compound `C[C@@H]1CCCCO[C@@H](CN(C)CC2CC2)[C@H](C)CN([C@H](C)CO)C(=O)c2cc(NS(C)(=O)=O)ccc2O1`, the cytotoxicity call was “inactive”. Regarding `C[C@@H]1CN([C@@H](C)CO)C(=O)c2cc(-c3cccc(C(=O)N(C)C)c3)cnc2O[C@H]1CN(C)C(=O)Cc1ccccn1`, the cytotoxicity call is “inactive”.

For `C[C@H]1CN([C@@H](C)CO)C(=O)c2cc(NC(=O)C3CC3)ccc2O[C@@H]1CN(C)Cc1ccc(-c2ccccc2)cc1`, the cytotoxicity call was “inactive”.
